Data: EPA's CvTdb concentration-time database
The source gives many values for each of these; only a part stands here.

What was measured:
Test in all cases: concentration in plasma after dosing
Rat [1] = details: 2 min; dosed: Bromochloroacetic acid; 10 mg/kg; iv; Male; F344
Rat [2] = system: Rat
Rat [3] = details: 5 min; dosed: Bromochloroacetic acid; 10 mg/kg; iv; Male; F344
Rat [4] = details: 20 min; dosed: Bromochloroacetic acid; 10 mg/kg; iv; Male; F344
Rat [5] = details: dosed: Bromochloroacetic acid, 40 mg/kg, oral, Female, F344
Rat [6] = details: 0.75 h; dosed: Fluorotelomer alcohol 8+2; 24 mg/kg; oral; Male; Harlan Sprague Dawley
Rat [7] = details: 6 h; dosed: Fluorotelomer alcohol 8+2; 80 mg/kg; oral; Female; Harlan Sprague Dawley

O=C(O)C(Cl)Br (centres undefined) [Bromochloroacetic acid]
Details	concentration in plasma [ng/mL]
Rat [1]	28100
Rat [3]	9020
Rat [4]	1620

concentration in plasma [ng/mL], Rat [2], dosed: Bromochloroacetic acid
Details	Female	Male
0.25 h, 40 mg/kg, oral, F344	7070	8230
0.25 h, 100 mg/kg, oral, F344	29400	6570
0.75 h, 100 mg/kg, oral, F344	47200	34200
1 h, 80 mg/kg, iv, F344	–	23500
1 h, 80 mg/kg, iv, Harlan Sprague-Dawley	17100	–
1.5 h, 40 mg/kg, oral, Harlan Sprague Dawley	5940	–
1.5 h, 100 mg/kg, oral, F344	26000	28500
2 h, 40 mg/kg, oral, F344	–	3270
2 h, 40 mg/kg, oral, Harlan Sprague Dawley	3150	–
2 h, 80 mg/kg, iv, F344	–	4440
2 h, 80 mg/kg, iv, Harlan Sprague-Dawley	2990	–
2 min, 10 mg/kg, iv, F344	–	19200
2 min, 100 mg/kg, oral, F344	3410	1970
3 h, 40 mg/kg, oral, F344	1580	1790
3 h, 80 mg/kg, iv, F344	–	554
3 h, 80 mg/kg, iv, Harlan Sprague-Dawley	562	–
3 h, 100 mg/kg, oral, F344	5700	11100
4 h, 40 mg/kg, oral, F344	1220	–
4.5 h, 100 mg/kg, oral, F344	7030	3780
5 min, 10 mg/kg, iv, F344	–	11800
5 min, 100 mg/kg, oral, F344	9340	5310
6 h, 40 mg/kg, oral, F344	239	–
6 h, 100 mg/kg, oral, F344	1020	301
7 h, 100 mg/kg, oral, F344	114	523
10 min, 10 mg/kg, iv, F344	–	4440
10 min, 40 mg/kg, oral, F344	–	6840
10 min, 40 mg/kg, oral, Harlan Sprague Dawley	5800	–
10 min, 100 mg/kg, oral, F344	9610	5100
20 min, 10 mg/kg, iv, F344	–	1170
20 min, 40 mg/kg, oral, F344	11000	–
20 min, 100 mg/kg, oral, F344	29900	11200
40 min, 10 mg/kg, iv, F344	–	201

Rat [5]
Details	concentration in plasma [ng/mL]
4 h	1080
20 min	12300

OCCC(F)(F)C(F)(F)C(F)(F)C(F)(F)C(F)(F)C(F)(F)C(F)(F)C(F)(F)F [Fluorotelomer alcohol 8+2]
concentration in plasma [ng/mL], Rat [2], oral
Details	Harlan Sprague Dawley	Harlan Sprague Dawley - this seems too small
0.25 h, dosed: Fluorotelomer alcohol 8+2, 24 mg/kg, Male	204	–
0.25 h, dosed: Fluorotelomer alcohol 8+2, 40 mg/kg, Female	254	–
0.25 h, dosed: Fluorotelomer alcohol 8+2, 48 mg/kg, Male	170	–
0.25 h, dosed: Fluorotelomer alcohol 8+2, 80 mg/kg, Female	255	–
0.25 h, dosed: Fluorotelomer alcohol 8+2, 160 mg/kg, Female	233	–
0.5 h, dosed: Fluorotelomer alcohol 8+2, 24 mg/kg, Male	546	285
0.5 h, dosed: Fluorotelomer alcohol 8+2, 40 mg/kg, Female	466	–
0.5 h, dosed: Fluorotelomer alcohol 8+2, 48 mg/kg, Male	732	–
0.5 h, dosed: Fluorotelomer alcohol 8+2, 80 mg/kg, Female	453	–
0.5 h, dosed: Fluorotelomer alcohol 8+2, 160 mg/kg, Female	851	–
0.75 h, dosed: Fluorotelomer alcohol 8+2, 24 mg/kg, Male	919	–
0.75 h, dosed: Fluorotelomer alcohol 8+2, 40 mg/kg, Female	633	–
0.75 h, dosed: Fluorotelomer alcohol 8+2, 48 mg/kg, Male	664	–
0.75 h, dosed: Fluorotelomer alcohol 8+2, 80 mg/kg, Female	1460	–
0.75 h, dosed: Fluorotelomer alcohol 8+2, 160 mg/kg, Female	1310	–
1 h, dosed: Fluorotelomer alcohol 8+2, 24 mg/kg, Male	290	–
1 h, dosed: Fluorotelomer alcohol 8+2, 40 mg/kg, Female	559	–
1 h, dosed: Fluorotelomer alcohol 8+2, 48 mg/kg, Male	689	–
1 h, dosed: Fluorotelomer alcohol 8+2, 80 mg/kg, Female	1040	–
1 h, dosed: Fluorotelomer alcohol 8+2, 160 mg/kg, Female	1890	–
3 h, dosed: Fluorotelomer alcohol 8+2, 24 mg/kg, Male	182	–
3 h, dosed: Fluorotelomer alcohol 8+2, 40 mg/kg, Female	136	–
3 h, dosed: Fluorotelomer alcohol 8+2, 48 mg/kg, Male	474	–
3 h, dosed: Fluorotelomer alcohol 8+2, 80 mg/kg, Female	748	–
3 h, dosed: Fluorotelomer alcohol 8+2, 160 mg/kg, Female	1580	–
5 min, dosed: Fluorotelomer alcohol 8+2, 40 mg/kg, Female	12.5	–
5 min, dosed: Fluorotelomer alcohol 8+2, 48 mg/kg, Male	12.9	–
5 min, dosed: Fluorotelomer alcohol 8+2, 80 mg/kg, Female	5.27	–
5 min, dosed: Fluorotelomer alcohol 8+2, 160 mg/kg, Female	27.2	–
6 h, dosed: Fluorotelomer alcohol 8+2, 24 mg/kg, Male	55.4	–
6 h, dosed: Fluorotelomer alcohol 8+2, 40 mg/kg, Female	325	–
6 h, dosed: Fluorotelomer alcohol 8+2, 48 mg/kg, Male	294	–
6 h, dosed: Fluorotelomer alcohol 8+2, 80 mg/kg, Female	213	–
6 h, dosed: Fluorotelomer alcohol 8+2, 160 mg/kg, Female	2250	–
9 h, dosed: Fluorotelomer alcohol 8+2, 40 mg/kg, Female	112	–
9 h, dosed: Fluorotelomer alcohol 8+2, 48 mg/kg, Male	133	–
9 h, dosed: Fluorotelomer alcohol 8+2, 80 mg/kg, Female	427	–
9 h, dosed: Fluorotelomer alcohol 8+2, 160 mg/kg, Female	279	–
12 h, dosed: Fluorotelomer alcohol 8+2, 24 mg/kg, Male	8.89	–
12 h, dosed: Fluorotelomer alcohol 8+2, 40 mg/kg, Female	57	–
12 h, dosed: Fluorotelomer alcohol 8+2, 48 mg/kg, Male	37.9	–
12 h, dosed: Fluorotelomer alcohol 8+2, 80 mg/kg, Female	52.7	–
12 h, dosed: Fluorotelomer alcohol 8+2, 160 mg/kg, Female	339	–
24 h, dosed: Fluorotelomer alcohol 8+2, 24 mg/kg, Male	4.53	–
24 h, dosed: Fluorotelomer alcohol 8+2, 40 mg/kg, Female	6.22	–
24 h, dosed: Fluorotelomer alcohol 8+2, 48 mg/kg, Male	5.6	–
24 h, dosed: Fluorotelomer alcohol 8+2, 80 mg/kg, Female	20.6	–
24 h, dosed: Fluorotelomer alcohol 8+2, 160 mg/kg, Female	63.4	–
48 h, dosed: Fluorotelomer alcohol 8+2, 48 mg/kg, Male	1.11	–
48 h, dosed: Fluorotelomer alcohol 8+2, 80 mg/kg, Female	3.74	–
48 h, dosed: Fluorotelomer alcohol 8+2, 160 mg/kg, Female	7.4	–

Details	concentration in plasma [ng/mL]
Rat [6]	924
Rat [7]	163
